In all, about 310,000 compounds went through this assay and about 14,000 (4.5%) showed an effect of 50% or more. Effects have a minus sign here. This is one part of the list.
The compounds below were run against human ether-à-go-go-related gene (hERG) potassium channel (human, UniProt Q12809) (assay: primary screen, population patch clamp on CHO cells stably expressing hERG).
Sequence of human ether-à-go-go-related gene (hERG) potassium channel (Q12809 whole entry, looked up): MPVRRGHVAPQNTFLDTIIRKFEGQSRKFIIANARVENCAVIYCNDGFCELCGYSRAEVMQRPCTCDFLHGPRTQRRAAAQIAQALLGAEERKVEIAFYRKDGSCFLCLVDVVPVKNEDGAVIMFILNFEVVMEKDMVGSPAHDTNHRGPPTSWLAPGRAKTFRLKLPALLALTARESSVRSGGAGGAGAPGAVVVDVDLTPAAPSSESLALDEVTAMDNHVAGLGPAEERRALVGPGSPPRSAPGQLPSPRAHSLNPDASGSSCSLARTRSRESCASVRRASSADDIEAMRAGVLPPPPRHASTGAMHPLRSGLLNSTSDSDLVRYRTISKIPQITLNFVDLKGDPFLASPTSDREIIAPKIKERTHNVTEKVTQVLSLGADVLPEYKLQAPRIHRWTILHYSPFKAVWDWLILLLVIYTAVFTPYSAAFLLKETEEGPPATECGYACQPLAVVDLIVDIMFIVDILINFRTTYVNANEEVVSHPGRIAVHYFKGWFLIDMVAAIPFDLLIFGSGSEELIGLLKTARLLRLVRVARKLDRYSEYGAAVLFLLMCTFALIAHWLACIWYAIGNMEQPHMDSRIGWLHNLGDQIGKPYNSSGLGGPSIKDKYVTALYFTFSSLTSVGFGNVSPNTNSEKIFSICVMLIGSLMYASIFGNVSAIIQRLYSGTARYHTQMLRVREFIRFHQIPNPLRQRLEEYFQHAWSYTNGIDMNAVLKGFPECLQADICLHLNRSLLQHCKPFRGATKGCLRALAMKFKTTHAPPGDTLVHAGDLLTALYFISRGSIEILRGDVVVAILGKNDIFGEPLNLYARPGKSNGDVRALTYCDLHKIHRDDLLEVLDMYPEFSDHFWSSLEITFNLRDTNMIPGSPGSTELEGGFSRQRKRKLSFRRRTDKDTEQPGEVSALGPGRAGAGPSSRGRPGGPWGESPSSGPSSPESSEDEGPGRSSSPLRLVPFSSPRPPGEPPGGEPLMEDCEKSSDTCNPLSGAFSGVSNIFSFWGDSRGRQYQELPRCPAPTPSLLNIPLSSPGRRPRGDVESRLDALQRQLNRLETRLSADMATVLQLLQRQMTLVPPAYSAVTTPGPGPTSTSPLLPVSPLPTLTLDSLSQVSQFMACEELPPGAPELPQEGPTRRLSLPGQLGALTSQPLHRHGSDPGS
In the case of CCCc1nnc(NC(=O)Nc2ccc(OC)cc2)s1, the “hERG current change (%, negative = inhibition) at 10uM” value is reported as 25%. CN1/C(=C\C(=O)CSc2nnc(N)s2)C(C)(C)c2ccccc21 was tested, and the “hERG current change (%, negative = inhibition) at 10uM” value was 0.532%. For Cc1c(NC(=O)C2CC(c3ccc(F)cc3)=NO2)c(=O)n(-c2ccccc2)n1C (stereo not drawn), the “hERG current change (%, negative = inhibition) at 10uM” value was -3.93%. With Nc1c2nc(-c3ccccc3)[nH]c(=O)c2nc(=O)n1-c1ccccc1 the “hERG current change (%, negative = inhibition) at 10uM” value was -0.0595%. For NS(=O)(=O)c1ccc(NC(=O)CSc2nnc(COc3ccccc3Cl)n2C2CC2)cc1, the “hERG current change (%, negative = inhibition) at 10uM” value was 6.32%. In the case of CC(CC#CCN1CCOCC1)OCCC#N (stereo not drawn), the “hERG current change (%, negative = inhibition) at 10uM” value is reported as 8.96%. With O=C(NC1CCC(O)CC1)c1ccc(NS(=O)(=O)c2cccc([N+](=O)[O-])c2)cc1 (stereo not drawn) the “hERG current change (%, negative = inhibition) at 10uM” value was 11.3%. In the case of CCC1S/C(=C(\C#N)C(N)=O)N(c2ccc(F)cc2)C1=O (stereo not drawn), the “hERG current change (%, negative = inhibition) at 10uM” value is reported as 7.87%. In the case of O=C(c1ccc(S(=O)(=O)N2CCOCC2)cc1)N(c1ccccc1)C1C=CS(=O)(=O)C1 (stereo not drawn), the “hERG current change (%, negative = inhibition) at 10uM” value is reported as -15%. In the case of CCc1nnc(NC(=O)c2ccc3nc(CC)c(CC)nc3c2)s1, the “hERG current change (%, negative = inhibition) at 10uM” value is reported as 31.4%. For Cc1ccc(-n2c(-c3ccc(Cl)cc3)n[nH]c2=S)c(C)c1, the “hERG current change (%, negative = inhibition) at 10uM” value was 8.6%. In the case of Cc1nn(CC(O)COc2ccc3c(c2)CCC3)c(C)c1Br (stereo not drawn), the “hERG current change (%, negative = inhibition) at 10uM” value is reported as 16.2%. For O=C(CSc1nc(-c2ccccc2)cs1)NCCN1C(=O)CSC1=O, the “hERG current change (%, negative = inhibition) at 10uM” value was -2%. With CCCn1c(Cc2ccccc2)n[nH]c1=S the “hERG current change (%, negative = inhibition) at 10uM” value was 18.4%. In the case of CC(=O)c1ccc(NC(=O)C(C)OC(=O)c2ccc3c(c2)nc(C)n3-c2ccccc2)cc1 (stereo not drawn), the “hERG current change (%, negative = inhibition) at 10uM” value is reported as -6.6%. For COc1ccc(-c2coc3cc4oc(=O)cc(-c5ccccc5)c4cc23)cc1F, the “hERG current change (%, negative = inhibition) at 10uM” value was -4.78%. With COc1ccc(C(=O)N2CC3(C)CC2CC(C)(C)C3)cc1OC (stereo not drawn) the “hERG current change (%, negative = inhibition) at 10uM” value was -21.4%. O=C(CN1CCCCCC1)Nc1cc(C(F)(F)F)ccc1Cl was tested, and the “hERG current change (%, negative = inhibition) at 10uM” value was 35.7%. With COc1ccc([C@H]2CC(=O)C=C(c3ccc(OC)c(OC)c3)C2)cc1 the “hERG current change (%, negative = inhibition) at 10uM” value was -1.6%. With CC[C@@H](C)[C@H](NC(=O)CCc1c(C)c2cc3c4c(oc3c(C)c2oc1=O)CCCC4)C(=O)O the “hERG current change (%, negative = inhibition) at 10uM” value was 2.16%. In the case of CCCNC(=O)C(Cc1ccc(F)cc1)NC(=O)c1ccc(C#N)cc1 (stereo not drawn), the “hERG current change (%, negative = inhibition) at 10uM” value is reported as -48.3%. Cc1ccc(NC(=O)/C(=C\c2cccc(Br)c2)NC(=O)c2ccco2)cc1 was tested, and the “hERG current change (%, negative = inhibition) at 10uM” value was -12.4%. For CCOC(=O)CN(C)Cc1cn[nH]c1-c1ccc2cc(OC)ccc2c1, the “hERG current change (%, negative = inhibition) at 10uM” value was -5.34%. For COc1ccc(CCc2nnc(CCC(=O)NCc3cc(C(C)C)no3)o2)cc1, the “hERG current change (%, negative = inhibition) at 10uM” value was 7.71%. For CCn1c(SCC(=O)Nc2ccc(NC(=O)c3ccco3)cc2)nnc1-c1cccs1, the “hERG current change (%, negative = inhibition) at 10uM” value was 11.9%. COc1ccc(-c2csc(NC(=O)c3ccoc3C)n2)cc1 was tested, and the “hERG current change (%, negative = inhibition) at 10uM” value was 22.1%. For CCN1CSC(=S)N(Cc2ccccc2)C1, the “hERG current change (%, negative = inhibition) at 10uM” value was 12.2%. CCOc1ccc(-c2nc(C#N)c(N3CCN(CC)CC3)o2)cc1 was tested, and the “hERG current change (%, negative = inhibition) at 10uM” value was -47.3%. In the case of Cc1cc([N+](=O)[O-])ccc1N1C(=O)c2ccc(C(=O)Nc3ccccc3C(=O)O)cc2C1=O, the “hERG current change (%, negative = inhibition) at 10uM” value is reported as 9.66%. In the case of CCOCCCNC(=S)N1CCCN(c2nc3cc(C)c(C)cc3cc2C#N)CC1, the “hERG current change (%, negative = inhibition) at 10uM” value is reported as -36.4%. COc1ccc(N2CCN(CC(=O)c3ccc(O)cc3O)CC2)cc1 was tested, and the “hERG current change (%, negative = inhibition) at 10uM” value was 11%. CCOC(=O)c1cnc2c(OC)cccc2c1Oc1ccccc1 was tested, and the “hERG current change (%, negative = inhibition) at 10uM” value was 3.3%. N/C(=N\OC(=O)C12CC3CC(CC(C3)C1)C2)c1ccccn1 was tested, and the “hERG current change (%, negative = inhibition) at 10uM” value was 2.13%. COCCN(C(=O)c1csnn1)C(C(=O)NC1CCCC1)c1ccc(C)cc1 (stereo not drawn) was tested, and the “hERG current change (%, negative = inhibition) at 10uM” value was 3.89%. O=C1CCN(Cc2ccccc2)CCN1CCOc1ccccc1 was tested, and the “hERG current change (%, negative = inhibition) at 10uM” value was -10.4%. In the case of Cc1cc(C)cc(C(=O)OCC(=O)NCc2cccs2)c1, the “hERG current change (%, negative = inhibition) at 10uM” value is reported as 12.1%. For CCCCNC(=O)Oc1cc(CCl)on1, the “hERG current change (%, negative = inhibition) at 10uM” value was 25.2%. In the case of Cc1cccc(NC(=O)CN2NS(=O)(=O)c3ccccc3C2=O)c1, the “hERG current change (%, negative = inhibition) at 10uM” value is reported as -12.3%. For CCOC(=O)CNc1nc(OCC#N)nc(N2CCOCC2)n1, the “hERG current change (%, negative = inhibition) at 10uM” value was -10.7%. In the case of O=C(Cn1cnc2ccccc2c1=O)c1ccc2c(c1)OCCO2, the “hERG current change (%, negative = inhibition) at 10uM” value is reported as 5.39%. In the case of Cc1ccc(C(=O)NC(NCc2ccccc2)C(Cl)(Cl)Cl)cc1 (stereo not drawn), the “hERG current change (%, negative = inhibition) at 10uM” value is reported as -11.3%. For COc1cc(OC)c(C(=O)NCc2ccc3c(c2)OCO3)cc1OC, the “hERG current change (%, negative = inhibition) at 10uM” value was -10.5%. For CC1C(=O)C(C)C(c2ccc([N+](=O)[O-])cc2)NC1c1ccc([N+](=O)[O-])cc1 (stereo not drawn), the “hERG current change (%, negative = inhibition) at 10uM” value was -46%. CCn1nc(NS(=O)(=O)c2ccccc2)c2cc3ccc(C)cc3nc21 was tested, and the “hERG current change (%, negative = inhibition) at 10uM” value was -3.92%. CCCCOc1ccc(C(=O)N/C(=C/c2cccc([N+](=O)[O-])c2)C(=O)O)cc1 was tested, and the “hERG current change (%, negative = inhibition) at 10uM” value was 19.5%. CN1CCCN(C2C3CC4CC(C3)CC2C4)CC1 (stereo not drawn) was tested, and the “hERG current change (%, negative = inhibition) at 10uM” value was 10.9%. For N#CCCC12CCCCC1=Nc1ccccc12 (stereo not drawn), the “hERG current change (%, negative = inhibition) at 10uM” value was 6.76%. O=C(Nc1ccc(Br)cc1F)c1ccncc1 was tested, and the “hERG current change (%, negative = inhibition) at 10uM” value was -11.2%. For CCc1ccc(CNC(=O)C2CCN(S(=O)(=O)N3CCC(C)CC3)CC2)cc1, the “hERG current change (%, negative = inhibition) at 10uM” value was 1.4%. CS(=O)(=O)N1N=C(c2cccs2)CC1c1ccccc1O (stereo not drawn) was tested, and the “hERG current change (%, negative = inhibition) at 10uM” value was 0.712%. For COc1cc(C(F)(F)F)c(C(=O)N(C)Cc2ccc(Cl)c(Cl)c2)cn1, the “hERG current change (%, negative = inhibition) at 10uM” value was -15.4%. For COc1ccc(-n2nc(C(=O)NCC(=O)N3CCN(c4cccc(Cl)c4)CC3)c3ccccc3c2=O)c(OC)c1, the “hERG current change (%, negative = inhibition) at 10uM” value was -2.74%. In the case of CCOc1ccc(N2CC(C(=O)NCCc3ccccc3)CC2=O)cc1 (stereo not drawn), the “hERG current change (%, negative = inhibition) at 10uM” value is reported as -29.6%. With CCCCC1=NN(C(=O)c2cccnc2)C(O)(C(F)(F)F)C1 (stereo not drawn) the “hERG current change (%, negative = inhibition) at 10uM” value was 16.1%. For CCNc1nc(NC(C)C)nc(Oc2ccc(OCCOc3ccc(C)cc3)nn2)n1, the “hERG current change (%, negative = inhibition) at 10uM” value was -48.2%. COc1ccc(-c2n[nH]c(=S)n2-c2ccc(C)cc2)cc1 was tested, and the “hERG current change (%, negative = inhibition) at 10uM” value was 8.3%. For CC(C)Oc1ccc(Cc2cnc(=S)[nH]c2N)cc1, the “hERG current change (%, negative = inhibition) at 10uM” value was 15.8%.
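Further: peak tail current of the secondary pulse compared with the same well before compound.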
